Data: publication PMC10516938, “Conformational dynamics of cohesin/Scc2 loading complex are regulated by Smc3 acetylation and ATP binding” (Nature Communications, 2023)
Substitutions are numbered along the chain they refer to. Names and notes keep the numbering of the source. No constants are given. Whether binding was seen depends on the method and setting. In cells and extracts the contact can be indirect. Some binding calls cover weakened binding; strength is not graded here.

B1: Smc1 R1031C (protein, UniProt P32908 1-1225)
chain: MGRLVGLELSNFKSYRGVTKVGFGESNFTSIIGPNGSGKSNMMDAISFVLGVRSNHLRSNILKDLIYRGVLNDENSDDYDNEGAASSNPQSAYVKAFYQKGNKLVELMRIISRNGDTSYKIDGKTVSYKDYSIFLENENILIKAKNFLVFQGDVEQIAAQSPVELSRMFEEVSGSIQYKKEYEELKEKIEKLSKSATESIKNRRRIHGELKTYKEGINKNEEYRKQLDKKNELQKFQALWQLYHLEQQKEELTDKLSALNSEISSLKGKINNEMKSLQRSKSSFVKESAVISKQKSKLDYIFKDKEKLVSDLRLIKVPQQAAGKRISHIEKRIESLQKDLQRQKTYVERFETQLKVVTRSKEAFEEEIKQSARNYDKFKLNENDLKTYNCLHEKYLTEGGSILEEKIAVLNNDKREIQEELERFNKRADISKRRITEELSITGEKLDTQLNDLRVSLNEKNALHTERLHELKKLQSDIESANNQEYDLNFKLRETLVKIDDLSANQRETMKERKLRENIAMLKRFFPGVKGLVHDLCHPKKEKYGLAVSTILGKNFDSVIVENLTVAQECIAFLKKQRAGTASFIPLDTIETELPTLSLPDSQDYILSINAIDYEPEYEKAMQYVCGDSIICNTLNIAKDLKWKKGIRGKLVTIEGALIHKAGLMTGGISGDANNRWDKEEYQSLMSLKDKLLIQIDELSNGQRSNSIRAREVENSVSLLNSDIANLRTQVTQQKRSLDENRLEIKYHNDLIEKEIQPKITELKKKLDDLENTKDNLVKEKEALQNNIFKEFTSKIGFTIKEYENHSGELMRQQSKELQQLQKQILTVENKLQFETDRLSTTQRRYEKAQKDLENAQVEMKSLEEQEYAIEMKIGSIESKLEEHKNHLDELQKKFVTKQSELNSSEDILEDMNSNLQVLKRERDGIKEDIEKFDLERVTALKNCKISNINIPISSETTIDDLPISSTDNEAITISNSIDINYKGLPKKYKENNTDSARKELEQKIHEVEEILNELQPNARALERYDEAEGCFEVINNETEQLKAEEKKILNQFLKIKKKRKELFEKTFDYVSDHLDAIYRELTKNPNSNVELAGGNASLTIEDEDEPFNAGIKYHATPPLKRFKDMEYLSGGEKTVAALALLFAINSYQPSPFFVLDEVDAALDITNVQRIAAYIRRHRNPDLQFIVISLKNTMFEKSDALVGVYRQQQENSSKIITLDLSNYAE
B2: Smc1 E1102C (protein, UniProt P32908 1-1225)
chain: B1 chain with C1031R, E1102C

Tests used:
[1] = biological target: T1, Smc3 E202C (S. cerevisiae) (UniProt P47037); experiment: cross-linking; in vivo BMOE cross-link of cysteine pairs in exponentially grown yeast cells (on ice, 6 min); Scc1-PK immunoprecipitated, western blot
T1 sequence: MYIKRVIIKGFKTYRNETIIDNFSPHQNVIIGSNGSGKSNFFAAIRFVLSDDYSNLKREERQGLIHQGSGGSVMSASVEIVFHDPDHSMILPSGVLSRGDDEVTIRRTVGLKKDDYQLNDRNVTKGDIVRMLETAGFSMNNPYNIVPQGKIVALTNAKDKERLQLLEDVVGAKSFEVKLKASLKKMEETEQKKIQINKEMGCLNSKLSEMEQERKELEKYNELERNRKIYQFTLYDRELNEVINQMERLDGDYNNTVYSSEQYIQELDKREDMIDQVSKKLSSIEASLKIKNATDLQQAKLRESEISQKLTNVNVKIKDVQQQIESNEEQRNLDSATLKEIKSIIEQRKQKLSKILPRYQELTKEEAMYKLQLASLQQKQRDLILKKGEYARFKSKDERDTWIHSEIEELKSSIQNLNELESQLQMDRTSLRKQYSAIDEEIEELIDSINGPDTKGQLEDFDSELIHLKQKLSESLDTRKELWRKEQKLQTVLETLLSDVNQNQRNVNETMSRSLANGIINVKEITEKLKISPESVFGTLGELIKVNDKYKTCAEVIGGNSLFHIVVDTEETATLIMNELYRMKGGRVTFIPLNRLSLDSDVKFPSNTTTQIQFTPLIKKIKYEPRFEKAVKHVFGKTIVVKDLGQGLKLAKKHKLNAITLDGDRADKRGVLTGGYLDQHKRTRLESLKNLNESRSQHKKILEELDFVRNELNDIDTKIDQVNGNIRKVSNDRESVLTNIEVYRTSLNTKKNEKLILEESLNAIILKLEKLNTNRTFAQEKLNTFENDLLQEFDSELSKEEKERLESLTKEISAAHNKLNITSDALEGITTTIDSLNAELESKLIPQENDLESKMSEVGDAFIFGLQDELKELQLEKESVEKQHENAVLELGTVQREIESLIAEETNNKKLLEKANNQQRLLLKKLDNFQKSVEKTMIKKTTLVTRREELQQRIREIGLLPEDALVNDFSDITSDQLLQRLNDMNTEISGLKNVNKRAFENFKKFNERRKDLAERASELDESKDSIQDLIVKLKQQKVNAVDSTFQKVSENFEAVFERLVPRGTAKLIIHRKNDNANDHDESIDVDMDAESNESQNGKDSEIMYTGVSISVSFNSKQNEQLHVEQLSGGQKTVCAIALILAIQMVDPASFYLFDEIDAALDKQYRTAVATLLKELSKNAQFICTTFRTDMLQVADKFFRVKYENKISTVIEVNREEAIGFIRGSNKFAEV

[2] = biological target: T2, Smc3^QQ-PK (S. cerevisiae) (UniProt P47037); experiment: co-IP; Smc3-PK or Smc3^QQ-PK immunoprecipitated with anti-PK from whole-cell extracts of BMOE-treated late G1 arrested cells; Smc1 (anti-MYC) and Scc2 (anti-FLAG) detected
T2 sequence: T1 sequence with K112Q, K113Q, C202E

Smc3-PK (S. cerevisiae) = biological target: T3, Smc3-PK (S. cerevisiae) (UniProt P47037); experiment: as above
T3 sequence: T1 sequence with C202E

Row | Binder | binding [1] | binding [2] | binding (Smc3-PK (S. cerevisiae))
1 | B1 | binds |  | 
2 | B2 |  | binds | binds
